Experimental data from PubChem BioAssay AID686979 (National Center for Advancing Translational Sciences (NCATS), 2013).
About 50,000 (12%) of roughly 420,000 compounds were called active. Inconclusive means that the source gave no clear call. Such entries were picked first, then a sample of the others. Calls come from the whole dose curve; as a rule, active = well fitted inhibition curve with a large enough effect; inconclusive = small, poorly fitted or top-dose-only effect; inactive = flat fitted curve, though single readings scatter. Potencies of inconclusive entries are left out as doubtful fits.

Assay: qHTS for Inhibitors of human tyrosyl-DNA phosphodiesterase 1 (TDP1): qHTS in cells in presence of CPT; note: nearly all actives have a fitted effect of over 55% in size
Settings: chicken DT40 Tdp1-/-;hTDP1 cells + 20 nM CPT, ATP luminescence, 48 h; activity change, negative = growth inhibition: at 46.2 µM (top of the series) unless noted
Method in brief: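 Chicken DT40 Tdp1-/- cells complemented with human TDP1, 400 cells/well, exposed to compounds plus 20 nM camptothecin for at least 48 h at 37 C; viability read as ATP content by CellTiter-Glo luminescence.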
% is set by controls: 0 for no effect and ±100 for the full control effect; potency is the fitted concentration of half-maximal effect; tags give direction and shape of the fitted curve.

SMILES	Potency	activity change, negative = growth inhibition
COc1ccc(CC(=O)NCc2nc3cccnc3n2Cc2ccc(C)cc2)cc1	inactive	–
CCCN(CCC)C(=O)CSc1nc2ccccc2c(=O)n1Cc1ccco1	active: 18.4 µM	–
O=[N+]([O-])c1cc(S(=O)(=O)CCCN2CCOCC2)ccc1F	active: 20.6 µM	–
COc1ccc(C2(c3ccc(OC(C)=O)cc3OC(C)=O)CC(c3ccccc3)NC(=S)N2)cc1 (stereo unspecified)	inconclusive [inhibitor, full curve, poor fit]	–
CC1=NOC(=O)/C1=C\c1ccc(-c2ccccc2Br)o1	active: 6.51 µM	–
Cc1ccc(NC(=O)C2CCN(S(=O)(=O)c3ccc(Cl)c(C(F)(F)F)c3)CC2)nc1	inactive	–
O=C(Nc1ccc2c(c1)nc1n2CCCCC1)c1cc(S(=O)(=O)N2CCOCC2)ccc1Cl	active: 11.6 µM	–
Cn1c(C(=O)NC2CCCCC2)cc2c(=O)n(C)c3ccccc3c21	inconclusive [inhibitor, single point]	–
COC(=O)c1ccc(NC(=O)C(=O)NCCc2sc(-c3cccc(F)c3)nc2C)cc1	active: 11.6 µM	–
CC1CCCCC1NCc1cccc([N+](=O)[O-])c1 (stereo unspecified)	inconclusive [inhibitor, single point]	–
O=C(Cn1cnc2ccccc2c1=O)N/N=C/c1ccc(Br)cc1	inactive	–
COc1ccccc1NC(=O)C(C)OC(=O)C1CCC(C(C)(C)C)CC1 (stereo unspecified)	inconclusive [inhibitor, single point]	–
COc1ccc(Cl)cc1NC(=O)CSc1nc(=O)n(CCN(C)C)c2c1CCCC2	active: 16.4 µM	–
CCOC(=O)c1ccc(NC(=O)CCc2nc(-c3ccccc3Cl)no2)cc1	active: 16.4 µM	–
COC(C[C@@H]1O[C@H]1C(=O)COCc1ccccc1)OC	active: 16.4 µM	–
C=CCN1C(=O)C(Cc2ccc(OCC)cc2)S/C1=N\N=C\c1cccs1 (stereo unspecified)	inconclusive [inhibitor, single point]	–
COc1ccc(CC(=O)NCc2ccccc2F)cc1S(=O)(=O)N1CCOCC1	inactive	–
Cc1cc(C)n(C(=O)CCCn2nc(C)c([N+](=O)[O-])c2C)n1	inactive	–
CNC(=O)c1ccc(NC(=O)CC23CC4CC(CC(C4)C2)C3)cc1	inactive	–
COc1ccc(C(O)c2ncc(-c3cccc(C(F)(F)F)c3)[nH]2)cc1 (stereo unspecified)	inconclusive [inhibitor, single point]	–
O=S(=O)(O/N=C1\CCCc2ccccc21)c1ccccc1	inactive	–
O=S1(=O)CC(O)C(NCCO)C1 (stereo unspecified)	inactive	–
O=C(NCc1ccc(Cl)cc1)c1ccc(CNc2c(N3CCCC3)c(=O)c2=O)cc1	–	inconclusive: -32.2% [inhibitor]
CCNc1nc(SC(C)C(=O)Nc2ccccc2)nc(N(C)C)n1 (stereo unspecified)	inconclusive [inhibitor, single point]	–
CCC(Sc1ccc(Cl)cc1)C(=O)Nc1nnc(-c2cccc([N+](=O)[O-])c2)s1 (stereo unspecified)	inconclusive [inhibitor, single point]	–
C=CCn1c(NS(=O)(=O)c2ccccc2)c(S(=O)(=O)c2ccc(C)cc2)c2nc3ccccc3nc21	inconclusive [inhibitor, single point]	–

SMILES	Potency	activity change, negative = growth inhibition
COc1ccc(OC2C(=O)N(c3ccc(C)c(C)c3)C2c2ccc(OC)c(OC)c2)cc1 (stereo unspecified)	inconclusive [inhibitor, single point]	–
Cc1onc(-c2c(F)cccc2Cl)c1C(=O)N1CCCc2ccccc21	inconclusive [inhibitor, single point]	–
Cc1ccc(C(=O)N(C)CCOc2ccccc2)cc1S(=O)(=O)N1CCCCC1	active: 18.4 µM	–
CC(C)[C@H](NC(=O)c1ccccc1)C(=O)OCC(=O)N1CCc2ccccc2C1	inconclusive [inhibitor, single point]	–
COc1cccc(N(C(=O)Cn2nnc(-c3ccc(C)o3)n2)C(C(=O)NC2CCCC2)c2ccncc2)c1 (stereo unspecified)	inconclusive [inhibitor, single point]	–
Fc1ccc(-c2cc(-c3ccccc3)c3c(n2)-c2cc(F)ccc2OC3)cc1	inactive	–
CCOc1ccc(C(=O)N/N=C/c2cccc3cccnc23)cc1	active: 10.3 µM	–
COc1ccccc1/C=N\N=C(\N)c1ccccn1	inactive	–
COc1cccc(/C=N/NC(=O)c2cnn(-c3ccccc3)c2N)c1	inconclusive [inhibitor, single point]	–
O=C(Nc1cccc(C(F)(F)F)c1)C1CCCN(S(=O)(=O)c2cnc[nH]2)C1 (stereo unspecified)	inactive	–
COc1cccc(O)c1O	active: 3.66 µM	–
Cc1ccc(SCC(=O)N2CCOCC2)cc1	inactive	–
CCOC(=O)C1CCCN(CCCc2ccccc2)C1 (stereo unspecified)	inactive	–
O=C(NC1CCCCC1)C(c1ccccc1)n1c(=O)c(-c2ccco2)nc2ccccc21 (stereo unspecified)	active: 18.4 µM	–
CCOC(=O)C(=CNc1ccc(C(F)(F)F)cc1Cl)C(=O)OCC	inactive	–
Cc1ccc(C(=O)OCC(=O)N2C(C)CCCC2C)cc1S(=O)(=O)N1CCCCC1 (stereo unspecified)	inconclusive [inhibitor, partial curve]	–
CN1CCC(=C2c3ccccc3C(O)c3ccccc32)CC1 (stereo unspecified)	inactive	–
Cn1c(=O)cc(OCC(=O)NCCCN2CCN(c3cccc(Cl)c3)CC2)c2ccccc21	inconclusive [inhibitor, single point]	–
CCOC(=O)c1c(NC(=O)COC(=O)c2ccccc2NC)sc(C(=O)N(C)C)c1C	inconclusive [inhibitor, single point]	–
O=C(CSc1nnc(CCCO)n1-c1ccccc1)Nc1nccs1	inactive	–
CCCN1CCCc2ccccc21	inconclusive [inhibitor, single point]	–
O=C(NCc1ccco1)c1cccc(Br)c1	inactive	–
O=C(CSC(=S)N1CCCC1)N(Cc1nnc(-c2ccccc2Cl)o1)C1CC1	inactive	–
CCOC(=O)COc1cc(N2C(=O)CSCC2=O)c(Cl)cc1Cl	inactive	–
CN(C)CCCNC(=O)C(=O)Nc1ccc2c(c1)N(S(=O)(=O)c1cccs1)CCC2	inconclusive [inhibitor, single point]	–
CCCC(=O)NC(c1ccc(OC)cc1)c1ccc2cccnc2c1O (stereo unspecified)	active: 2.31 µM	–

SMILES	Potency	activity change, negative = growth inhibition
O=C(COC(=O)Cc1c(F)cccc1Cl)NC(=O)c1ccccc1	inactive	–
O=c1c2ccccc2oc2cc(C#CC3(O)CCCCC3)ccc12	inconclusive [inhibitor, single point]	–
O=C(C1CC1)N1CCN(c2nc3ccc(F)cc3s2)CC1	inconclusive [inhibitor, single point]	–
O=C(NCC1CCCCC1)c1ccc(Cl)c(S(=O)(=O)N2CCOCC2)c1	inconclusive [inhibitor, single point]	–
O=C(Cn1cc(Cl)ccc1=O)c1ccc(Cl)cc1	inactive	–
CCn1c(CC(=O)Nc2ccc(Cl)c(Cl)c2)nnc1SCc1ccc(C)cc1	inactive	–
CN(Cc1nccs1)C(=O)c1ccc2nc(Cc3ccccc3F)oc2c1	inconclusive [inhibitor, single point]	–
COc1cccc(OCc2nc3ccccc3n2CCOc2ccccc2C)c1	inconclusive [inhibitor, single point]	–
COC(=O)[C@@]12CCCN1[C@H](c1ccc(-c3ccc(Cl)c(Cl)c3)c(OC)c1)[C@H]1C(=O)N(C)C(=O)[C@H]12	active: 13 µM	–
COc1ccc(C(CC(=O)c2ccc(C)cc2)Nc2ccc([N+](=O)[O-])cc2)cc1 (stereo unspecified)	inconclusive [inhibitor, single point]	–
OC(c1ccc(F)cc1)c1ncc(-c2cccc3ccccc23)[nH]1 (stereo unspecified)	inconclusive [inhibitor, single point]	–
CC(C)NC(=O)OCc1c(COC(=O)NC(C)C)c([N+](=O)[O-])n2c1CCC2	inactive	–
COc1cc([N+](=O)[O-])ccc1-c1ccc(/C=N\n2cnnc2)o1	active: 1.64 µM	–
CCCCN(C(=O)CCOc1ccc(OCC)cc1)c1c(N)n(Cc2ccccc2)c(=O)[nH]c1=O	inactive	–
Cc1nc(C)c(-c2csc(NCc3ccco3)n2)s1	inconclusive [inhibitor, partial curve]	–
CCOC(=O)c1c(NC(=O)COC(=O)Cn2cnc3c2c(=O)n(C)c(=O)n3C)sc(C)c1CC	active: 6.51 µM	–
CCC(Oc1ccccc1)C(=O)Nc1ncc([N+](=O)[O-])s1 (stereo unspecified)	inconclusive [inhibitor, single point]	–
CCc1cc(C(=O)c2ccccc2OC)c(N)s1	inconclusive [inhibitor, partial curve, poor fit]	–
CCCCOc1ccc(CNC(=O)c2cnc3sc(N4CCOCC4)nn3c2=O)cc1	inconclusive [inhibitor, single point]	–
Cc1c2ccccc2nc2c(F)c(NC(C)C)c(F)c(F)c12	inconclusive [inhibitor, single point]	–
O=[N+]([O-])c1ccc(N2CCN(S(=O)(=O)c3ccccc3)CC2)cc1	inconclusive [inhibitor, full curve, poor fit]	–
CC(C)[C@H](NC(=O)OC(C)(C)C)c1cc(C(=O)N[C@@H](C)c2ccccc2)c(N)s1	inconclusive [inhibitor, single point]	–
CC1(C)N=C(N)N=C(N)N1c1ccc(Oc2ccc(Cl)cc2)c(Cl)c1	active: 2.59 µM	–
COc1cccc(/C=N/NC(=O)NC23CC4CC(CC(C4)C2)C3)c1O	inactive	–
